Source: PubChem BioAssay AID1963576 (National Center for Advancing Translational Sciences (NCATS), 2024)
Hit rate of the full screen: of about 46,000 compounds, about 60 (0.1%) were called active. Not shown: some 3% with an inconclusive outcome. The call rests on the fitted dose curve; in most records, active means well fitted inhibition curve with a large enough effect; inconclusive means small, poorly fitted or top-dose-only effect; inactive means no such curve, though single readings can be large or run the other way. Some of the results follow.

Assay: Primary qHTS assay for Inhibitors of ovarian cancer metastasis using an organotypic tumor microenvironment (TME) model. Further: nearly all actives have a fitted effect of over 65% in size.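 On activity change, negative = inhibition: plate controls were DMSO wells for no effect and tomatine positive control wells for full effect.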
Settings: SKOV3ip1-GFP adhesion/invasion on 3D omental model, fluorescence; series mostly up to 45.8 µM; activity change, negative = inhibition: at the top concentration
Procedure, shortened: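 Primary human omental fibroblast/mesothelial 3D culture pre-formed 48 h. SKOV3ip1-GFP cells added with compounds (0.36-46 umol/L), incubated 2 h RT/16 h 37 C, fixed; GFP cells quantified at 488/509 nm.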

Activity change, negative = inhibition, inactive:
CCCNC(=O)c1cc2n(n1)CCCN(Cc1ccc(F)cc1)C2=O 0.649%
Cc1ccc2scc(N3CCN(c4ccccc4)CC3)c(=O)c2c1 0.841%
CCOc1ccc(CCNC(=O)c2ccc3[nH]c(C)c(C)c3c2)cc1 19.7%
O=C(OCc1ccccc1)c1ccc(-c2nnn(Cc3ccccc3F)n2)cc1 -5.71%
O=C(CSCc1nc2cccnc2n1C1CCCCC1)NCc1cccc(Br)c1 5.3%
O=C(C1COc2ccccc2O1)N(Cc1cccnc1)c1nc2ccc(F)cc2s1 (stereo not given) -1.53%
CCN(C(=O)Cn1c(SCc2ccccc2F)nc2cccnc21)c1ccccc1 -3.77%
CCOC(=O)c1sc(N2C(=O)c3oc4ccc(F)cc4c(=O)c3C2c2cccc(OC)c2)nc1C (stereo not given) 4.75%
CCOc1ccc2ncc3c(-c4ccccc4)nn(CC(=O)Nc4cccc(F)c4)c3c2c1 5.26%
O=C(CSc1nc(-c2ccco2)nc2cc(=O)[nH]n12)Nc1ccccc1Cl -8.5%
O=C(Cn1c(=O)oc2ccccc21)NCc1ccccc1Cl 30.4%
CCCn1cc(S(=O)(=O)c2cccc(Cl)c2)c(=O)c2cc(F)c(N3CCN(CC)CC3)cc21 5.91%
COCCCNC(=O)C1CCN(c2nnc(-n3cccc3CNc3ccc(C)cc3)s2)CC1 -1.67%
COc1ccccc1CNC(=O)Cn1c(=O)oc2ccccc21 1.72%
COc1ccc(S(=O)(=O)N2Cc3ccccc3CC2C(=O)Nc2cccc(C)c2)cc1OC (stereo not given) 0.693%
CON=C(C(=O)N[C@@H]1C(=O)N2C(C(=O)O)=C(CSC(=O)c3ccco3)CS[C@H]12)c1csc(N)n1 18.5%
COc1ccccc1CNc1nc(-c2ccco2)nn1C(=O)c1ccccc1[N+](=O)[O-] -7.33%
CCCCn1c(CCNC(=O)c2ccc(F)cc2)nc2ccccc21 2.77%
COCCCNC(=O)Cn1c(=O)n(-c2cccc(C)c2)c(=O)c2c3c(sc21)CN(C(C)=O)CC3 1.27%
O=C(CN1C(=O)C2CCCCN2c2ccc(C(=O)N3CCCC3)cc21)NCc1ccccc1 (stereo not given) 5.61%
CCc1cccc(C)c1NC(=O)C1CCCN(S(=O)(=O)c2cccc3nsnc23)C1 (stereo not given) -3.29%
CC1(C)S[C@H]2[C@H](NC(=O)[C@@H](N)c3ccc(O)cc3)C(=O)N2[C@@H]1C(=O)O 3.52%
CN(C)c1ccc(CNc2nc(-c3ccco3)nn2S(=O)(=O)c2ccc(Cl)cc2)cc1 1.77%
COc1ccc(CNC(=O)c2cc3c(=O)n(Cc4cccs4)ccc3nc2C)cc1 -1.39%
Cc1ccnc(NS(=O)(=O)c2ccc(NC(=O)c3cc(=O)c4ccc(C)c(C)c4o3)cc2)n1 5.49%
Cc1ccc2nc(N3CCN(C(=O)C4COc5ccccc5O4)CC3)sc2c1 (stereo not given) -10.5%
COc1ccc(Cl)cc1NC(=O)c1c(C(=O)Nc2cccc(C)c2C)sc2nc(C)cc(=O)n12 28.6%
Cc1nn(Cc2ccccc2)c(C)c1NC(=O)c1cc(C(C)C)on1 3.57%
CN(C)CCNC(=O)Cc1ccc(NC(=O)N2CCCCc3ccccc32)cc1 7.32%
CCOC(=O)c1sc(NC(=O)c2nc(SCC)ncc2Cl)c(C(=O)OCC)c1C -12.3%
Cc1cc(Nc2cc(NC(=O)c3c(Cl)cccc3Cl)ccn2)nc(N)n1 44.6%
COCCCn1c(=N)c(S(=O)(=O)c2ccccc2)cc2c(=O)n3cccc(C)c3nc21 1.31%
Cc1ccc(C2c3cccn3CCN2S(=O)(=O)c2ccc([N+](=O)[O-])cc2)cc1 (stereo not given) -4.67%
Cc1ccccc1OCc1nc2c3cnn(-c4ccccc4Br)c3ncn2n1 -2.69%
COCCOc1nc(-c2ccc(Cl)c(Cl)c2)n(-c2ccc(NC(=O)CCl)cc2)n1 20.4%
O=C(NCc1ccc(F)cc1)c1ccc(CS(=O)(=O)c2ccc(Cl)cc2)o1 -1.32%
COc1cccc(CNC(=O)CSc2nc(=O)[nH]c3c2CCCC3)c1 -7.33%
Cc1ccc2c(=O)cc(C(=O)Nc3nnc(CC(C)C)s3)oc2c1C -5.98%
COc1ccc(CCNC(=O)Cn2cc(S(=O)(=O)Cc3ccccc3F)c3ccccc32)cc1OC -2.47%
CC1CCN(S(=O)(=O)c2ccc(N3CCCCS3(=O)=O)cc2)CC1 3.03%
Cc1cccc(Cn2c(=O)n(CCC(=O)NCc3ccc4c(c3)OCO4)c(=O)c3sccc32)c1 -8.25%
O=C(CC1N=C2c3ccccc3N=C(SCC(=O)Nc3cccc(Cl)c3)N2C1=O)NCc1cccs1 (stereo not given) -7.09%
CCn1c(SCC(=O)Nc2ccc(C)cc2Br)nnc1-c1nonc1NC(C)=O -14.6%
CCc1ccc(NC(=O)c2ccc3c(c2)N(Cc2ccc(C)cc2)CCS3)cc1 -5.31%

outcome, inactive:
O=C(c1ccc2c(c1)N(Cc1ccccc1F)C(=O)c1ccccc1S2(=O)=O)N1CCCCCC1
COc1ccc(-n2c(-c3ccc(F)cc3)cn3c4c(=O)n(C)c(=O)n(C)c4nc23)cc1
COc1cc2[nH]c(=O)n(CCCC(=O)NCc3ccccc3Cl)c(=O)c2cc1OC
O=C(CSc1nc2c(c(=O)[nH]1)CCCC2)Nc1cccc(O)c1
COc1cccc(CNC(=O)Cn2cc3c(n2)-c2c(oc(C(=O)N4CCOCC4)c2C)CC3)c1
COC(=O)c1ccccc1NC(=O)CSc1nc2sc3c(c2c(=O)[nH]1)CCCC3
Cc1cc(=O)n2c(C(=O)Nc3ccc(C)c(C)c3)c(C(=O)Nc3ccccc3)sc2n1
COc1ccc(-c2nc3ccccc3o2)cc1NC(=O)c1ccc(N2CCC(C)CC2)c([N+](=O)[O-])c1
CCOC(=O)c1cc(-c2ccc(C)cc2)n(CC(=O)Nc2cccc(C(C)=O)c2)c1C
CC1(C)CC(=O)c2cc(C(=O)Nc3ccc(Br)cc3)c(=O)n(-c3ccc(Cl)cc3)c2C1
COc1ccc(Nc2oc(/C=C/c3ccc(F)cc3)nc2C#N)cc1
CCn1cc2nc(SCc3cc(C)ccc3C)n(Cc3ccc(C)cc3)c(=O)c2n1
Cc1oc(-c2ccccc2F)nc1Cn1c(SCc2ccccc2F)nc2ccncc21
COc1ccccc1N1CCN(C(=O)CCSCc2ccccc2F)CC1
CCn1ccc2cc(S(=O)(=O)N3CCCN(C(=O)Nc4ccccc4C(F)(F)F)CC3)ccc21
CCOc1ccc(S(=O)(=O)N(CC(=O)NCCSCc2ccc(C)cc2)c2ccccc2)cc1
